The campaign covered roughly 200,000 compounds. About 4,500 (2.2%) were called active. Inconclusive means that the source gave no clear call. Such entries were picked first, then a sample of the others. Calls follow the shape of the dose curve; as a rule, active = well fitted inhibition curve with a large enough effect; inconclusive = small, poorly fitted or top-dose-only effect, or effect the other way; inactive = flat fitted curve, though single readings scatter. Potencies of inconclusive entries are doubtful fits and often do not repeat.
Biological target: Cruzipain (Trypanosoma cruzi) (UniProt P25779)
Sequence of UniProt P25779 (P25779 whole entry, looked up): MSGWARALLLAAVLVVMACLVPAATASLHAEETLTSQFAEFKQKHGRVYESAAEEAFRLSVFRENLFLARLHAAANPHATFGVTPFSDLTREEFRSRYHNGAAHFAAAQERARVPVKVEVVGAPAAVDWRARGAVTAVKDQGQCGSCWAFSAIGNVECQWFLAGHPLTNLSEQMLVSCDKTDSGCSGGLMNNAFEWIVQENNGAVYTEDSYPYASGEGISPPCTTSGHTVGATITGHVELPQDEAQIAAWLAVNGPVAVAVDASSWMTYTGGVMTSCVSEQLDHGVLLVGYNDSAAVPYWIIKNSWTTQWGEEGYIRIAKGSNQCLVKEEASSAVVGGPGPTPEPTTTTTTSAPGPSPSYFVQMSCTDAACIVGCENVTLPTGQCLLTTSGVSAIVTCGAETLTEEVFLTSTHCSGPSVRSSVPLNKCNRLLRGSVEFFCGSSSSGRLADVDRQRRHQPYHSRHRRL
Experiment: qHTS Assay for Promiscuous and Specific Inhibitors of Cruzain (without detergent); also: nearly all actives have a fitted effect of over 40% in size
Details: purified cruzain, Z-FR-AMC fluorescence, no detergent
Experimental: Cruzain is a cysteine protease from the tropical parasite Trypanosoma cruzi. Dual qHTS experiment was performed against the NCGC compound collection in order to 1) identify novel inhibitors of the enzyme and 2) profile the compound collection for promiscuous inhibitors operating via colloidal aggregation (by performing detergent-free and detergent-containing comparison screens). Cruzain was assayed by the use of fluorogenic coumarin-based substrate Z-FR-AMC: proteolytic cleavage releases AMC, whose fluorescence is measured at 360 nm excitation and 450 nm emission. Purified cruzain was supplied by the labs of Prof. James McKerrow and Brian Shoichet, UC San Francisco.
This assay had 0.00005% Triton X-100 concentration. See also releated assay "qHTS Assay for Promiscuous and Specific Inhibitors of Cruzain (with detergent)" with 0.01% Triton X-100.
See following references for additional details:
Assay Provider: Shoichet, Brian; University of California, San Fancisco
Screening Center PI: Austin, C.P.
Screening Center: NIH Chemical Genomics Center [NCGC]
Buffer: 100 mM Sodium Acetate, pH 5.5, 5 mM DTT, Triton X-100 concentration: 0.01%.
Buffer in columns 3 and 4 as negative control (no enzyme).
Substrate solution: 2 uM final concentration of Z-FR-AMC (catalog number I-1160, Bachem) dispensed throughout the plate.
Enzyme: 1.5 nM Cruzain final concentration in columns 1, 2, 5-48. Column 1 is neutral (100% activity). Column 2 contained titration of covalent inhibitor K11777, starting concentration 1 mM, then 1:2 dilution in duplicate).
Three uL of enzyme or buffer were dispensed to 1536-well Greiner black solid bottom plates. Compounds and controls (23 nL) were transferred via Kalypsys PinTool. The plates were incubated for 15 min at room temperature, and then 1 uL of substrate solution was added to start the reaction. The plates were immediately transferred to and read 4 times every 30 seconds for 2 min on ViewLux High-throughput CCD imager (Perkin-Elmer) using 360 nm excitation and 450 nm emission fluorescence protocol. The fluorescence intensity difference between the third and the first time points (time lapse of 60 seconds) was used to compute reaction progress.
Potency is read from the fitted curve at half-maximal effect; tags tell the direction and shape of the fitted curve.

Row | SMILES | Potency | max response, negative = inhibition
1 | COC(=O)/C(=C/c1ccc2c(c1)c1ccccc1n2C)NC(=O)c1ccccc1 | inconclusive: 39.8 µM [inhibitor, single point] | 
2 | CCC(C)O (stereo not given) |  | inactive: -1.86%
3 | Cc1cc(/C=C(\C#N)C(=O)Nc2ccc(Cl)cc2)c(C)n1-c1ccc(N2CCOCC2)c([N+](=O)[O-])c1 | active: 7.94 µM | 
4 | COc1ccc(Cl)cc1NC(=O)Cn1ccn(Cc2ccc(C)cc2)c(=O)c1=O | inconclusive: 39.8 µM [activator, single point] | 
5 | CCOc1c2ccc(C(=O)NCc3ccc(C(F)(F)F)cc3C(F)(F)F)cc2nn1C | inconclusive: 39.8 µM [activator, single point] | 
6 | Cc1cccc(C)c1NC(=O)CN1C(=O)S/C(=C\c2cccn2-c2cccc(C(=O)O)c2)C1=O | inconclusive: 25.1 µM [activator, partial curve] | 
7 | CC1(C)Oc2ccc3ccc(=O)oc3c2/C(=C/NCCN/C=C2\C(=O)C(C)(C)Oc3ccc4ccc(=O)oc4c32)C1=O | inconclusive: 39.8 µM [activator, single point] | 
8 | CCCCCn1c(CN2CCN(c3cccc(Cl)c3)CC2)nc2c1c(=O)[nH]c(=O)n2C | inconclusive: 31.6 µM [activator, single point] | 
9 | COc1cccc(-c2nc(-c3ccc(-c4ccccc4)nc3OC)no2)c1 |  | inactive: 6.37%
10 | Cc1ccccc1OCc1ccc(-c2nc(C#N)c(NCCCN(C)C)o2)o1 |  | inactive: -4.58%
11 | CCN(CCNC(=O)CN1CCN(Cc2ccc(Cl)cc2)C1=O)c1ccccc1 | inconclusive: 39.8 µM [activator, single point] | 
12 | Cc1cc(C)c2c(CC(=O)N(Cc3ccc(N(C)C)cc3)Cc3ccco3)coc2c1 | inconclusive: 25.1 µM [inhibitor, partial curve] | 
13 | CC1(C)N=C(N)N=C(N)N1c1cccc(OCc2cccc([N+](=O)[O-])c2)c1 |  | inactive: 2.29%
14 | CN(C)c1ccc(CNc2nc(-c3ccco3)nn2S(=O)(=O)c2ccc3ccccc3c2)cc1 | inconclusive: 12.6 µM [inhibitor, single point] | 
15 | OC[C@H](S)CS |  | inactive: 1.8%
16 | COc1ccccc1CNc1ccc(-c2nc(C(C)C)no2)cc1[N+](=O)[O-] | inconclusive: 31.6 µM [inhibitor, single point] | 
17 | O=[N+]([O-])c1ccc2ncccc2c1CCc1c([N+](=O)[O-])ccc2ncccc12 |  | inactive: 0.822%
18 | Cc1c(Cl)ccc2sc(N3CCN(C(=O)c4ccco4)CC3)nc12 |  | inactive: -5.58%
19 | CC(C)CCNC(=O)c1c(N)n(CC2CCCO2)c2nc3ccccc3nc12 (stereo not given) |  | inconclusive: 147% [activator]
20 | CCOC(=O)c1c(NC(=O)c2ccccc2)sc2c(O)c(CN(CC)CC)ccc12 | active: 15.8 µM | 

Row | SMILES | Potency | max response, negative = inhibition
21 | COC(=O)c1ccc(C(=O)OC)c(NC(=O)CN(c2ccc3c(c2)OCO3)S(C)(=O)=O)c1 | inconclusive: 39.8 µM [activator, single point] | 
22 | Cc1cc(NC(=O)CCSc2nc(-c3ccco3)cc(C(F)(F)F)n2)n(-c2ccccc2)n1 | inconclusive: 31.6 µM [activator, single point] | 
23 | COc1ccc(OC)c(/C=N/NC(=O)Cc2nc3ccccc3[nH]2)c1 | inconclusive: 39.8 µM [inhibitor, single point] | 
24 | COC(=O)c1cc(OC)c(OC)cc1NC(=O)CN1C(=O)c2ccccc2C1=O | inconclusive: 31.6 µM [activator, single point] | 
25 | COc1ccc(/C=C\c2onc(C)c2S(=O)(=O)N2CCC(C(=O)Nc3ccccc3OC)CC2)cc1 | inconclusive: 39.8 µM [inhibitor, single point] | 
26 | COc1ccc(OC)c(/C=N/NC(=O)c2cc3c(OC)c(OC)ccc3[nH]2)c1 | inconclusive: 39.8 µM [activator, single point] | 
27 | CCOC(=O)c1ccccc1NC(=O)CN(c1ccccc1OCC)S(C)(=O)=O | inconclusive: 31.6 µM [activator, single point] | 
28 | Cc1csc(NC(=O)CSc2nsc(SCC(=O)Nc3nc(C)cs3)c2C#N)n1 | inconclusive: 31.6 µM [inhibitor, single point] | 
29 | O=C(Nc1ccc(F)cc1)C(c1ccccc1)N1CCN(S(=O)(=O)c2ccc3ccccc3c2)CC1 (stereo not given) | inconclusive: 39.8 µM [inhibitor, partial curve, poor fit] | 
30 | Cc1ccc(C)c(CN2C(=O)c3ccccc3S(=O)(=O)c3ccc(C(=O)Nc4ccccc4C(F)(F)F)cc32)c1 | inconclusive: 25.1 µM [inhibitor, single point] | 
31 | COc1cc2[nH]c(=S)n(N(C(C)=O)C(C)=O)c(=O)c2cc1OC |  | inactive: 4.89%
32 | COc1ccc2c(c1)CCc1c(C(=O)Nc3cc(C)n(Cc4ccc(Cl)cc4)n3)noc1-2 | active: 12.6 µM | 
33 | O=C(O)C(=O)/C(=C\c1cccc2ccccc12)c1ccc2ccccc2n1 | inconclusive: 31.6 µM [inhibitor, single point] | 
34 | COc1ccc(C(=O)Nc2ccc(SC(F)F)cc2)cc1 | inconclusive: 39.8 µM [inhibitor, single point] | 
35 | COc1ccccc1C(=O)NC(=S)Nc1ccc(N2CCCC2)cc1 | inconclusive: 39.8 µM [inhibitor, single point] | 
36 | CN1C(=O)C2(c3ccccc31)N(c1ccccc1)C(=O)CS2(=O)=O (stereo not given) | inconclusive: 20 µM [inhibitor, single point] | 
37 | Cc1ccc(Cn2c(SCC(=O)Nc3cc(C)on3)nc3ccccc3c2=O)cc1 | inconclusive: 39.8 µM [inhibitor, single point] | 
38 | Cc1nn(-c2ccccc2)c(C)c1/C=N/NC(=O)c1cc(-c2cccs2)[nH]n1 | inconclusive: 31.6 µM [activator, single point] | 
39 | COc1cc(/C=C/C(=O)c2ccc(Cl)s2)cc(OC)c1O | inconclusive: 39.8 µM [activator, single point] | 
40 | Cn1c(N)c(C(=O)COC(=O)c2cc(-c3ccccc3)nc3ccccc23)c(=O)n(C)c1=O | inconclusive: 3.98 µM [activator, single point] | 

— PubChem BioAssay AID1476 (National Center for Advancing Translational Sciences (NCATS), 2009)
